Assay results published in PubChem BioAssay AID504466 (National Center for Advancing Translational Sciences (NCATS), 2011).
Out of some 330,000 compounds screened, about 4,200 (1.3%) were called active. The inconclusive results got no clear call from the source; some entries with a clear call stand among them for comparison. Calls follow the shape of the dose curve; as a rule, active = well fitted activation curve with a large enough effect; inconclusive = small, poorly fitted or top-dose-only effect; inactive = no such curve, though single readings can be large or run the other way. Potencies of inconclusive entries are doubtful fits and often do not repeat.

Experiment: qHTS screen for small molecules that induce genotoxicity in human embryonic kidney (HEK293T) cells expressing luciferase-tagged ELG1; also: nearly all actives have a fitted effect of over 60% in size; as to activity change, positive = activation: % of control where 0% means no effect
Settings: HEK293T ELG1-luciferase reporter, luminescence, 16 h; series mostly up to 46 µM; activity change, positive = activation: at the top concentration
Outline: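 Genotoxicity was scored as increased ELG1-luciferase reporter signal, measured by ONE-Glo luminescence (30 min, room temperature). Compound or vehicle exposure of the HEK293T reporter cells lasted 16 hr at 37°C.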
Potency is read from the fitted curve at half-maximal effect; tags tell the direction and shape of the fitted curve.

Row | SMILES | activity change, positive = activation | Potency
1 | O=C(CCCCCn1c(=S)[nH]c2ccc(N3CCOCC3)cc2c1=O)NCc1ccc(Cl)cc1 | inactive: 10.8% | –
2 | COc1ccc(-c2nnn3c2nc(NCc2ccccc2)c2ccccc23)cc1 | inactive: 4.69% | –
3 | CN(C)/N=C/C=C1\CCC/C(=C/c2cccs2)C1=O | – | inconclusive: 2.31 µM [activator, full curve]
4 | O=[N+]([O-])c1ccc2oc(-c3cccc(O)c3)nc2c1 | – | inconclusive: 5.8 µM [activator, single point]
5 | CCOC(=O)c1c(CC(C)C)csc1NC(C)=O | – | inconclusive: 32.6 µM [activator, partial curve, poor fit]
6 | c1ccc2sc(Nc3nc4cc5c(cc4s3)OCO5)nc2c1 | – | active: 5.17 µM
7 | Cc1ccc(C(=O)Nc2cccc(C(=O)N/N=C/c3ccc(F)cc3)c2)cc1 | inactive: 15.1% | –
8 | Cc1ccc([N+](=O)[O-])cc1-c1ccc(/C=N/NC(=O)CN2CCOCC2)o1 | inactive: -0.921% | –
9 | CC(=O)CCc1ccc(OCCCOc2cccc3cccnc23)cc1 | inactive: 2.72% | –
10 | Cc1ccc(F)cc1NC(=O)COC(=O)C1CCN(c2ccc(C(F)(F)F)cn2)CC1 | inactive: 15.2% | –
11 | Oc1ccccc1/C=N/Nc1ccccc1 | – | inconclusive: 14.6 µM [activator, partial curve]
12 | O=C(CCCc1ccccc1)N1CCN(C2CCCCC2)CC1 | – | inconclusive: 16.4 µM [activator, partial curve, poor fit]
13 | Cc1sc(N/N=C/c2ccco2)nc1-c1ccccc1 | – | inconclusive: 23.1 µM [activator, partial curve, poor fit]
14 | N#Cc1ccccc1COC(=O)c1cc(=O)c2ccccc2o1 | inactive: 3.94% | –
15 | CC(C)CC(=O)Nc1cccc(-c2cn3ccsc3n2)c1 | – | inconclusive: 5.17 µM [activator, partial curve]
16 | O=C(Nc1ccc2c(c1)C(=O)OC2)c1ccc(F)cc1F | inactive: 8.58% | –
17 | COc1ccccc1-c1noc(CCC(=O)Nc2cc(C(F)(F)F)ccc2Cl)n1 | inactive: -15.6% | –
18 | COCCCNC(=S)NC(=O)c1ccc(C)cc1 | – | inconclusive: 18.4 µM [activator, partial curve]
19 | OCCN1CCN(CC/C=C2/c3ccccc3Sc3ccc(C(F)(F)F)cc32)CC1 | – | inconclusive: 11.6 µM [activator, partial curve]
20 | CC1CCC/C(=C\Nc2ccc(C(=O)O)cc2)C1=O (stereo not drawn) | – | inconclusive: 2.06 µM [activator, partial curve]
21 | COc1ccc(C(=O)Nc2nc(-c3ccccc3)c(C(C)=O)s2)c(OC)c1 | – | inconclusive: 20.6 µM [activator, single point]
22 | CCN(CC)S(=O)(=O)c1ccc(N2CCOCC2)c(NC(=O)COc2ccc(OC)cc2)c1 | inactive: -3.03% | –
23 | COc1ccccc1N=Nc1c(C)[nH][nH]c1=O | inactive: 3.88% | –
24 | CS(=O)(=O)c1ccc2nc(NC(=O)CCC(=O)c3cccs3)sc2c1 | – | inconclusive: 25.9 µM [activator, single point]
25 | CCCC(=O)Nc1nc2ccc(OC)cc2s1 | – | inconclusive: 2.59 µM [activator, full curve]

Row | SMILES | activity change, positive = activation | Potency
26 | COc1cc(C(F)(F)F)ccc1C(=O)NCCc1ccco1 | – | inconclusive: 20.6 µM [activator, partial curve, poor fit]
27 | O=C(NCCc1ccccc1)c1coc(=O)c(Br)c1 | – | inconclusive: 23.1 µM [activator, single point]
28 | O=C(Nc1ccsn1)c1ccc(Cl)cc1Cl | – | inconclusive: 10.3 µM [activator, partial curve, poor fit]
29 | Clc1ccc(-c2nnc(-c3ccc(Br)o3)o2)c(Cl)c1 | – | active: 9.2 µM
30 | O=C(O)c1cccnc1SCc1cn2cc(Br)ccc2n1 | inactive: -2.19% | –
31 | CC(=O)c1ccc(NC(=O)CSC(C)C)cc1 | – | inconclusive: 16.4 µM [activator, single point]
32 | CCN(c1ccccc1)S(=O)(=O)c1cccc(C(=O)Nc2ccc(C)cn2)c1 | inactive: -11% | –
33 | O=C(O)c1cccc(-n2sc3ccccc3c2=O)c1 | inactive: -0.312% | –
34 | COc1ccc(OC)c(NC(=O)Nc2cc(NC(=O)Nc3cc(OC)ccc3OC)c(C)nc2C)c1 | – | inconclusive: 6.51 µM [activator, full curve]
35 | Cc1cccc(Nc2ncnc3nc[nH]c23)c1 | – | inconclusive: 13 µM [activator, partial curve, poor fit]
36 | Cc1nc(/C(N)=N/OC(=O)c2ccccc2Cl)c(C(F)(F)F)o1 | – | inconclusive: 23.1 µM [activator, single point]
37 | Cc1ccc2nc(N(CCCN(C)C)C(=O)c3ccc(S(=O)(=O)N4CCc5ccccc5C4)cc3)sc2c1 | – | inconclusive: 29.1 µM [activator, single point]
38 | COc1ccc(-c2cc(C(=O)N/N=C(\C)c3cccnc3)c3ccccc3n2)cc1 | – | inconclusive: 16.4 µM [activator, partial curve]
39 | COc1ccc(Cc2noc(-c3ccc(C)cc3)n2)cc1 | – | inconclusive: 20 µM [activator, single point]
40 | O=C(/C=C/c1cccc([N+](=O)[O-])c1)Nc1ccc(NC(=O)c2cccs2)cc1 | – | inconclusive: 18.4 µM [activator, partial curve, poor fit]
41 | O=C(N/N=C/c1ccccc1OC(=O)c1ccc2c(c1)OCO2)c1cccc(F)c1 | – | inconclusive: 20.6 µM [activator, partial curve, poor fit]
42 | Cc1nn(Cc2ccccc2)c(C)c1C(=O)N1CCN(S(=O)(=O)/C=C/c2ccccc2)CC1 | inactive: -1.54% | –
43 | CC(=O)c1ccc(NC(=O)Cc2cccs2)cc1 | – | inconclusive: 18.3 µM [activator, partial curve]
44 | Cc1ccc(F)cc1NC(=O)c1ccc2c(c1)OCO2 | – | inconclusive: 25.9 µM [activator, single point]
45 | Cc1ccc2nc(SCC(=O)N3CCN(c4ccccc4)CC3)[nH]c2c1 | inactive: -7.63% | –
46 | Cn1c(=O)c(=O)n(C)c2cc(S(=O)(=O)N3CCCC3C(=O)Nc3ccccc3F)ccc21 (stereo not drawn) | inactive: 0.405% | –
47 | O=C(Nc1ccccc1)C1=C[C@@H](C2CCCCC2)C[C@@H](OCCCCO)O1 | – | inconclusive: 18.3 µM [activator, partial curve]
48 | Clc1ccc(/C=N/Nc2ncnc3ccccc23)cc1Cl | – | inconclusive: 6.51 µM [activator, partial curve, poor fit]
49 | Cc1cc(C)c(C(=O)/C=C/c2cccs2)c(=O)[nH]1 | inactive: -12.8% | –
50 | CC(OC(=O)Cc1ccsc1)C(=O)Nc1ccc(Cl)cn1 (stereo not drawn) | – | inconclusive: 0.0103 µM [activator, full curve, poor fit]

Row | SMILES | activity change, positive = activation | Potency
51 | Cc1cc(CN(C)C(=O)c2cc(COc3ccc(F)cc3Cl)on2)n[nH]1 | – | inconclusive: 13 µM [activator, partial curve, poor fit]
52 | COc1ccc(CCNC(=O)c2cc(S(=O)(=O)N3CCCCC3)ccc2Cl)cc1 | inactive: -2.53% | –
53 | CSc1nsc(SCC(=O)Nc2ccc3c(c2)OCCO3)n1 | – | active: 10 µM
54 | Cc1ccc(-c2nc3cccnc3s2)cc1NC(=O)C1c2ccccc2Oc2ccccc21 | – | inconclusive: 18.4 µM [activator, single point]
55 | COc1cccc(-c2nc(-c3ccccc3)no2)c1 | – | inconclusive: 1.46 µM [activator, full curve]
56 | COc1ccc(C(=O)N2CCC(C(=O)Nc3ccc4c(c3)OCCO4)CC2)cc1 | – | inconclusive: 14.6 µM [activator, partial curve]
57 | CCOc1ccc(NCc2cc3c(C(C)(C)C)nn(-c4ccccc4)c3[nH]c2=O)cc1 | – | inconclusive: 29.1 µM [activator, single point]
58 | COc1cccc(/C=C2\SC(=S)N(CCC(=O)Nc3ccc(O)cc3)C2=O)c1 | – | inconclusive: 16.4 µM [activator, partial curve, poor fit]
59 | CCCN1CCN(CCCNC(=O)Cn2nc(C)n3c(cc4cc(OC)ccc43)c2=O)CC1 | inactive: 1.44% | –
60 | O=C(NC1=NCCS1)c1ccc(Br)s1 | – | active: 7.31 µM
61 | Cc1ccc2nc(-c3ccc(SCC(=O)Nc4nnc(C)s4)nc3)[nH]c2c1 | – | inconclusive: 4.61 µM [activator, single point]
62 | CN(Cc1cccs1)C(=O)c1cccc(S(=O)(=O)N2CCCCCC2)c1 | inactive: -0.357% | –
63 | CCOC(=O)c1ccc(-c2ccc3c(c2)CCC3)nc1C | – | active: 3.66 µM
64 | COc1ccc(NC(=O)CN(C)S(=O)(=O)c2ccc(Cl)cc2)cc1Cl | inactive: -2.73% | –
65 | O=C(N/N=C/c1ccccn1)c1cccs1 | – | inconclusive: 1.64 µM [activator, partial curve, poor fit]
66 | O=C(O)CCCC(=O)Nc1cccc(C(=O)Nc2ccccc2C(=O)O)c1 | inactive: 1.69% | –
67 | O=C(Nc1nnc(SCc2ccccc2)s1)c1cc2c(s1)CCCC2 | – | inconclusive: 18.4 µM [activator, partial curve, poor fit]
68 | CCn1c2ccccc2c2cc(NC(=O)COC(=O)Cc3cn4ccsc4n3)ccc21 | – | inconclusive: 16.4 µM [activator, single point]
69 | O=C(c1ccco1)N1CCN(Cc2cc(=O)c(OCc3cccc(F)c3)co2)CC1 | inactive: 1.46% | –
70 | COc1c(F)c(F)c(C(=O)Nc2ccc(-c3nc4ccccc4[nH]3)cc2)c(F)c1F | – | inconclusive: 13 µM [activator, partial curve, poor fit]
71 | Cc1cccc(-c2nc(C#N)c(N3CCCCCC3)o2)c1 | – | active: 16.4 µM
72 | COc1ccc(C2=CN3CCCCC3CC2=O)cc1OC (stereo not drawn) | – | inconclusive: 23.1 µM [activator, partial curve, poor fit]
73 | O=C(NCc1ccc(Cl)cc1)Nc1ccc(F)cc1 | – | inconclusive: 32.6 µM [activator, partial curve, poor fit]
